PubChem BioAssay AID1963576 (National Center for Advancing Translational Sciences (NCATS), 2024)
Screen size: about 46,000 compounds; about 60 (0.1%) were called active. Another 3% or so got no clear call; they are omitted. The call rests on the fitted dose curve; in most records, active means well fitted inhibition curve with a large enough effect; inconclusive means small, poorly fitted or top-dose-only effect; inactive means no such curve, though single readings can be large or run the other way. Some of the results follow.

Test: Primary qHTS assay for Inhibitors of ovarian cancer metastasis using an organotypic tumor microenvironment (TME) model. Further: nearly all actives have a fitted effect of over 65% in size.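 On activity change, negative = inhibition: plate controls were DMSO wells for no effect and tomatine positive control wells for full effect.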
Details: SKOV3ip1-GFP adhesion/invasion on 3D omental model, fluorescence; series mostly up to 45.8 µM; activity change, negative = inhibition: at the top concentration
Summary of the method: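 qHTS, 4-pt dose (0.36-46 umol/L); SKOV3ip1-GFP, 1,200 cells/well, no FBS; primary omental fibroblast/mesothelial co-culture 48 h pre-grown; 2 h RT + 16 h 37 C; PBS wash, 4% PFA; GFP count 488/509 nm.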

Activity change, negative = inhibition, inactive:
CCOc1cccc2cc(-c3cn4c(n3)sc3ccccc34)c(=O)oc12 6.97%, COc1ccc(-c2[nH]ncc2C(=O)NCc2cccc(OC)c2)cc1 19%, Cc1ccc(CNC(=O)CSc2nnc(C)c3c(C)n(-c4ccccc4)nc23)cc1 -16.3%, CCN(C(=O)CCNC(=O)Cn1cnc2ccccc2c1=O)c1cc(OC)ccc1OC 9.09%, COc1ccc(NC(=O)CSC2=Nc3ccccc3N=C(c3ccc(F)cc3)C2)cc1OC 9.95%, CN(C)c1ccc(CNC(=O)CN2C(=O)CSc3ccc(S(=O)(=O)N4CCCC4)cc32)cc1 -0.132%, CN(C)c1cccc(C(=O)Nc2nc3ccc(S(=O)(=O)N4CCCC4)cc3s2)c1 -20.5%, O=C(Nc1ccc(O)c(-c2nc3ccccc3o2)c1)c1ccc(Br)cc1 -12.7%, CCSc1ncc(Cl)c(C(=O)Nc2nc3ccc(Cl)cc3s2)n1 -7.86%, CN(C)c1ccc(NC(=O)Cn2nnc3sc4c(c3c2=O)CCC(C(C)(C)C)C4)cc1 (centres undefined) -4.78%, O=S(=O)(c1ccc(Cl)cc1)c1nnn2c1nc(NC1CCCCC1)c1sccc12 -0.279%, Cc1cc(NC(=O)CCc2nc3cccnc3n2Cc2cccs2)ccc1Br 2.19%, COc1ccnc2[nH]cc(C(=O)C(=O)N3CCN(C(=O)c4ccccc4)C[C@@H]3C)c12 -8.23%, Cc1cccc(NC(=O)c2oc3ccccc3c2NC(=O)c2cc(=O)c3ccc(C)cc3o2)c1 -2.79%, CC(=O)Nc1ccc(NC(=O)C2CCN(S(=O)(=O)c3ccc4c(c3)CCCC(=O)N4)CC2)cc1 5.82%, CCc1ccccc1NC(=O)CSc1nnc(-c2ccc(OC)cc2)s1 12.1%, Cc1ccc(NS(=O)(=O)c2cc(-c3cc(C)no3)ccc2C)c(Cl)c1 1.04%, CCOc1ccc2nc(N3CCCC(C(=O)Nc4cc(C)ccc4C)C3)sc2c1 (centres undefined) 7.69%, Cc1ccc(NC(=O)Nc2c[nH]c(=O)[nH]c2=O)c(Cl)c1 -0.319%, Cc1nc2ccc(CN(C)c3ccc(C(=O)N[C@@H](CCC(=O)O)C(=O)O)s3)cc2c(=O)[nH]1 -1.81%, CCOc1cc(C2c3c(oc4ccccc4c3=O)C(=O)N2Cc2ccc(OC)cc2)ccc1O (centres undefined) -10.2%, Cc1ccc(OCC(=O)NCC(c2ccc(Cl)cc2)N2CCOCC2)cc1C (centres undefined) 9.28%, Cc1ccn2c(=O)cc(COc3ccc(NC(=O)COc4ccc(C)c(C)c4)cc3)nc2c1 -9.79%, COCCNC(=O)CCCn1c(SCC(=O)c2ccc(Br)cc2)nc2c(sc3ccccc32)c1=O 1.86%, COc1ccc(C)cc1NC(=O)c1cnc2ccc(C)cn2c1=O -10.2%, Cc1cc2c(cc3c(SCc4ccc(Cl)cc4)nncn32)o1 0.998%, O=c1c2ccccc2n(Cc2c(F)cccc2Cl)c(=O)n1CCc1ccccc1 8.48%, CCOC(=O)c1c(C)[nH]c(C)c1S(=O)(=O)N(C)CC(=O)NCc1ccc(Cl)cc1 -12.5%, COc1ccc(-n2cnc3cc(C(=O)NC4CCCCCC4)ccc32)cc1 -4.71%, Cc1ccc(C(=O)c2oc3ccccc3c2NC(=O)Cc2coc3ccc(C)cc23)cc1 0.841%, O=C(O)c1ccc2nc(-c3cc4cc(Cl)ccc4oc3=O)[nH]c2c1 5.74%, O=C(CCCCn1c(=O)c2ccccc2n(Cc2cccc(F)c2)c1=O)NCc1ccc2c(c1)OCO2 14.1%, Cc1cccc(Nc2c(-c3ccsc3)nc3nc(C)cc(C)n23)c1 -7.22%, O=C(CSc1nccn1-c1cccc(Cl)c1)Nc1cccc2ccccc12 -7.78%, CCOc1ccc(CCNC(=O)CCCc2nnc3n(CC)c(=O)c4sccc4n23)cc1 0.741%, Cc1ccc2onc(CNC(=O)NCc3ccc(Cl)cc3)c2c1 -1.01%, COc1ccc(C)cc1-n1cnc2cc(C(=O)NC3CCCCCC3)ccc21 -16.2%, Cn1c(SCC(=O)Nc2nc3ccccc3s2)ncc(C(=O)Nc2ccccc2)c1=O -11.6%, COc1cccc(CNC(=O)CN2C(=O)N(c3ccc(C)cc3C)S(=O)(=O)c3ccccc32)c1OC 50.5%, CCc1nc(-c2cc(S(=O)(=O)N3CCN(c4ccccc4)CC3)ccc2OC)no1 10.3%, CNC(=O)[C@H](Cc1ccccc1)NC(=O)[C@H](CC(C)C)[C@H](CSc1cccs1)C(=O)NO -10.5%, Cn1c(=O)c2c(-c3ccc(Br)cc3)n(Cc3ccc(F)cc3)cc2n(C)c1=O -9.02%, O=C(O)c1c(-c2ccccc2)oc2ccc(OCc3c(F)cccc3Cl)cc12 -13.1%, Cc1ccc(/C=C(\C#N)C(=O)Nc2cccc(Cl)c2)o1 -4.28%, COc1ccc(CCNC(=O)C2CCN(Cc3nc(-c4ccc(OC)c(OC)c4)oc3C)CC2)cc1OC 1.25%, CCN(CC)C(=O)Cn1c(=O)n(CC2CCC(C(=O)NC)CC2)c(=O)c2sccc21 (centres undefined) -0.325%, CCC1Oc2ccccc2N(CC(=O)NCc2cc(OC)ccc2OC)C1=O (centres undefined) -1.53%, O=C(CSc1nc(-c2ccccc2F)nc2cc(=O)[nH]n12)Nc1cccc(C(F)(F)F)c1 -2.29%, Cc1ccc(OCC(=O)Nc2ccc(S(=O)(=O)Nc3cc(C)on3)cc2)c(Br)c1 -3.12%, COc1ccc(C(CC(=O)NCc2ccc(Cl)cc2)N2Cc3ccccc3C2=O)cc1OC (centres undefined) -10.6%, COc1cc(C)ccc1OCCSc1nnc(-c2ccc(C)cc2)o1 -1.91%, Cc1ccc(C(=O)c2oc3ccccc3c2NC(=O)Cc2coc3c(C)c(C)ccc23)cc1 3.72%, COc1ccc(-c2nc3ccccc3n2Cc2ccc(Cl)cc2)cc1 1.25%, O=C(OCc1cc(=O)n2c3c(sc2n1)CCCC3)c1cccc(NC(=O)c2ccccc2F)c1 -1.69%, CCOc1ccc(NC(=O)CSC2=Nc3ccccc3C3=NC(CC(=O)NCc4ccc5c(c4)OCO5)C(=O)N23)cc1 (centres undefined) -6.39%, O=C(NCc1ccccc1Cl)c1ccc(NC(=O)N2CCCCc3ccccc32)cc1 -0.432%, Cc1cc(Br)ccc1NC(=O)C1(S(=O)(=O)c2ccc(Cl)cc2)CC1 1.14%, COc1ccccc1C(=O)Nc1ccc(-c2nc3ccccc3s2)c(C)c1 -14.3%, CC1CCCCN1CC(=O)N1CCCc2c1c(=O)oc1ccc(OCc3ccccc3)cc21 (centres undefined) 1.88%, O=C(NCCS(=O)(=O)N1CCN(c2ccccc2)CC1)C1CC(=O)N(c2ccccc2)C1 (centres undefined) -0.256%, Cc1cccc(NC(=O)CN(C)S(=O)(=O)c2ccc3c(c2)c(=O)n(C)c(=O)n3C)c1 7.08%, Cc1ccc(-c2cc(C(=O)N(Cc3ccccc3)Cc3ccco3)no2)cc1F 18.3%, COc1ccccc1C(=O)Nc1nnc(S(=O)(=O)N2CCCCCC2)s1 -13.5%, CCOc1ccccc1C(=O)Nc1ccc(S(=O)(=O)N2CCCCC2c2cccnc2)cc1 (centres undefined) -8.48%, Cc1ccc(-c2ccc(=O)n(CC(=O)Nc3ccc(F)c(Cl)c3)n2)cc1C -0.65%, COc1ccc(C)c2sc(N(Cc3cccnc3)C(=O)CCc3ccccc3)nc12 4.96%, CC(=O)Nc1ccc(S(=O)(=O)NC2(C(F)(F)F)NC(=O)N(c3ccc(Cl)cc3)C2=O)cc1 (centres undefined) 4.44%, COc1ccc(C(=O)N2CCc3cc(OC)c(OC)cc3C2COc2ccccc2OC)cc1 (centres undefined) 46.2%, CCCCN(CC)C(=O)Nc1ccc2c(c1)N(C)C(=O)c1ccccc1S2 -8.27%, Cc1ccc(C(=O)COC(=O)c2cc(-c3ccc(Cl)cc3)nc3ccccc23)cc1 7.23%

outcome, inactive:
O=C(CCn1c(=O)c2sccc2n(CC(=O)Nc2ccccc2)c1=O)NCc1ccccc1Cl, COc1cccc(CNCc2cccn2-c2nnc(N3CCN(c4ccccc4)CC3)s2)c1, CC1CCN(S(=O)(=O)c2ccc3c(ccc(=O)n3CC(=O)NCc3ccccc3Cl)c2)CC1, Cc1ccc2c(c1)c1c(c(=O)n(-c3ccccc3C)c(=O)n1CC(=O)c1ccc(Cl)cc1)n2C, CCC1CN(C(=O)N2CCC(C(=O)NCc3cc(OC)c(OC)c(OC)c3)CC2)c2ccccc2O1 (centres undefined), Cc1ccc(-n2c(=O)c3c(cnn3C)n(Cc3ccc(Cl)cc3)c2=O)cc1, CCOc1ccc(CNC(=O)c2ccc3[nH]c(C)c(C)c3c2)cc1OC, CCc1ccc(NC(=O)N(Cc2c[nH]c3ccccc23)C2CCCCC2)cc1, Cc1ccc(-c2nc3c4ccccc4n(CC(=O)NCc4ccc(F)cc4)c(=O)n3n2)cc1, CCSc1ncc(Cl)c(C(=O)Nc2c(C(=O)Nc3ccccc3)oc3ccccc23)n1, O=C1COc2cc(S(=O)(=O)CCC(=O)NC3CCCCC3)c(Cl)cc2N1, CCc1nn(CC(=O)NCCCN(CC)CC)c(=O)c2cc3occc3n12, COc1ccc(-c2nc3cc(C)ccn3c2NC(=O)c2cccc(F)c2)cc1, O=C(NCCn1cc(SCc2ccc(Br)cc2)c2ccccc21)c1cccs1, CCCC(=O)N1CCc2cc(OC)c(OC)cc2C1COc1ccc(C(=O)OC)cc1 (centres undefined), Cc1cc(C)cc(OCCCn2c(-c3ccc(Cl)cc3)nc3ccccc3c2=O)c1, CCOc1ccccc1-c1nc(Cn2c(=O)cc(C)c3c(C)nn(-c4ccccc4)c32)c(C)o1, Cc1ccc(S(=O)(=O)c2c(Nc3cccc(Cl)c3)sc(C(=O)c3ccc4c(c3)OCO4)c2N)cc1, COc1ccc(-c2nc(CNS(=O)(=O)c3ccc(C)cc3)cs2)cc1, COc1cccc(NC(=O)CSC2=Nc3ccccc3C3=NC(CCC(=O)NCc4ccco4)C(=O)N23)c1 (centres undefined), CCOc1ccc(CCNc2nc3c(-c4ccc(C)cc4)nnn3c3ccccc23)cc1OCC, CCCn1c(=O)c2sccc2n2c(CCCC(=O)Nc3ccc(C)c(F)c3)nnc12, COC(=O)c1c(C)sc(-c2c(-c3cccc(OC)c3)[nH]c3c2c(=O)[nH]c(=O)n3C)c1O, COc1ccc(-c2noc(CN3CCN(c4ccccc4OC)CC3)n2)cc1OC
